# This list was built around the results that the source calls inconclusive (neither active nor inactive); the mix of calls is not that of the screen. For some assays here: No potency is given beside an inconclusive call; the fits are too rough. For some assays here: “Side channel” marks fits to a control or component signal instead of the main read-out. Active and inactive are the calls of the source. Unless noted, the call rests on the fitted dose curve.
# Legend:
# [1] = target: Estrogen receptor (Homo sapiens) (UniProt P03372); assay: qHTS assay for small molecule antagonists of estrogen receptor alpha signaling (AID 588513; active means well fitted curve in the direction sought with a large enough effect in the signal ratio, with a control signal flat, not every such curve was filed as active; inconclusive means small, poorly fitted or top-dose-only effect, or effect the other way, or a change in a side signal; inactive means no such curve, though single readings can be large or run the other way; the % refers to the signal ratio; further: potency means the concentration at half of the fitted maximal effect; on activity, negative = inhibition: on the % scale 0 is the no-effect control and ±100 the full control effect); conditions: ER-alpha-UAS-bla HEK293, beta-lactamase ratio, antagonist mode; activity, negative = inhibition: at 76.9 µM (top of the series) unless noted
# Outline: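 ER-alpha-UAS-bla GripTite HEK 293 cells in 2% charcoal/dextran-treated FBS medium; compounds titrated (1:2, duplicate), then stimulated with 0.5 nM 17-beta-estradiol for 18 h at 37C. CCF4 beta-lactamase fluorescence; Hill-fit IC50 and efficacy.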
# [2] = target: Glucocorticoid receptor (Homo sapiens) (UniProt P04150); assay: qHTS assay for small molecule agonists of glucocorticoid receptor signaling (AID 588532; active means well fitted curve in the direction sought with a large enough effect in the signal ratio, with a control signal flat; inconclusive means small, poorly fitted or top-dose-only effect, or a change in a side signal; inactive means no such curve, though single readings can be large or run the other way; the % refers to the signal ratio; further: potency means the concentration at half of the fitted maximal effect;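 on activation: 100% = dexamethasone at 0.1 µM and 0% = DMSO only wells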); conditions: HeLa MMTV-bla, beta-lactamase ratio, agonist, 18 h; activation: stronger effect = higher value, percent of dexamethasone control, DMSO zero
# Outline: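 Stimulation of a glucocorticoid response element-driven beta-lactamase gene was measured in HeLa cells. Responses were scaled between DMSO basal and 0.1 uM dexamethasone, then fitted for half-maximal stimulation.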
# [3] = qHTS assay for small molecule agonists of the antioxidant response element (ARE) signaling pathway (AID 651741; active means well fitted activation curve with a large enough effect in the signal ratio; inconclusive means small, poorly fitted or top-dose-only effect, or effect the other way, or a change in a side signal; the % refers to the signal ratio; further: potency means the concentration at half of the fitted maximal effect; on activation: % of control where 0% means no effect); conditions: HepG2 ARE-bla reporter, beta-lactamase FRET ratio, 16 h; activation: at 96 µM (top of the series) unless noted
# Outline: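 Reporter: beta-lactamase under ARE, stably in HepG2. Exposure: 16 h, 37 C, compounds delivered in DMSO by pin tool after 5 h cell preincubation. Readout: FRET substrate fluorescence after 2 h at RT.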
# [4] = qHTS assay for cell viability of the p53RE-bla HCT-116 cell line (AID 743292; active means well fitted curve in the direction sought with a large enough effect; inconclusive means small, poorly fitted or top-dose-only effect, or another doubt; inactive means no such curve, though single readings can be large; an effect the other way counts as inactive or inconclusive; further: potency means the concentration at half of the fitted maximal effect; nearly all actives have a fitted effect of over 55% in size)
# Outline: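 Compound-exposed HCT-116 (p53RE-bla) cells, 4,000 per well, were kept 16 h at 37 C following a 5 h preincubation. Cell number was estimated from total ATP by CellTiter-Glo luminescence read after 30 min at room temperature.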
# [5] = target: Peroxisome proliferator-activated receptor delta (Homo sapiens) (UniProt Q03181); assay: qHTS assay for small molecule antagonists of peroxisome proliferator-activated receptor delta signaling (AID 588535; active means well fitted inhibition curve with a large enough effect in the signal ratio, with a control signal flat, not every such curve was filed as active; inconclusive means small, poorly fitted or top-dose-only effect, or effect the other way, or a change in a side signal; inactive means no such curve, though single readings can be large or run the other way; the % refers to the signal ratio; further: potency means the concentration at half of the fitted maximal effect); conditions: HEK293T PPARd-UAS-bla, beta-lactamase FRET ratio, 18 h; activity change, negative = inhibition: at 76.7 µM (top of the series) unless noted
# Outline: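 Inhibition of PPAR-delta response element-driven beta-lactamase expression is measured in HEK293T cells exposed to a compound titration series for 18 hrs at 37 C. Half-maximal inhibition comes from Hill equation fitting.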
# [6] = target: Peroxisome proliferator-activated receptor gamma (Homo sapiens) (UniProt P37231); assay: qHTS assay for small molecule antagonists of peroxisome proliferator-activated receptor gamma signaling (AID 588537; active means well fitted inhibition curve with a large enough effect in the signal ratio, with a control signal flat, not every such curve was filed as active; inconclusive means small, poorly fitted or top-dose-only effect, or effect the other way, or a change in a side signal; the % refers to the signal ratio; further: potency means the concentration at half of the fitted maximal effect;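 further: reporter cells co-stimulated with 50 nM rosiglitazone agonist during compound treatment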; on activity, negative = inhibition: % of control where 0% means no effect); conditions: HEK293 PPARg-UAS-bla, beta-lactamase ratio, antagonist mode; activity, negative = inhibition: at 76.8 µM (top of the series)
# Outline: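 Compounds are tested as concentration series for inhibition of rosiglitazone-driven (50 nM) reporter expression in GeneBLAzer PPAR-gamma-UAS-bla HEK293 cells. After 16 h at 37 C, CCF4 substrate is added for 2 h at room temperature and blue/green fluorescence is measured.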
# [7] = target: Retinoic acid receptor RXR-alpha (Homo sapiens) (UniProt P19793); assay: qHTS assay for small molecule agonists of retinoid X receptor alpha signaling (AID 588544); conditions: HEK293T RXRa-UAS-bla, beta-lactamase reporter, 18 h; activation: at 76.7 µM (top of the series) unless noted; further: potency means the concentration at half of the fitted maximal effect;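 on activation: 0% = DMSO basal wells and 100% = reference agonist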
# [8] = target: Glucocorticoid receptor (Homo sapiens) (UniProt P04150); assay: qHTS assay for small molecule antagonists of glucocorticoid receptor signaling (AID 588533; active means well fitted inhibition curve with a large enough effect in the signal ratio, with a control signal flat, not every such curve was filed as active; inconclusive means small, poorly fitted or top-dose-only effect, or effect the other way, or a change in a side signal; the % refers to the signal ratio;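 further: cells stimulated with 2 nM dexamethasone as agonist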; further: potency means the concentration at half of the fitted maximal effect; on activity change, negative = inhibition: on the % scale 0 is the no-effect control and ±100 the full control effect); conditions: HeLa MMTV-bla, GRE beta-lactamase ratio, antagonist mode, 18 h; activity change, negative = inhibition: at 76.8 µM (top of the series) unless noted
# [9] = target: Bile acid receptor (Homo sapiens) (UniProt Q96RI1); assay: qHTS assay for small molecule agonists of farnesoid X receptor signaling (AID 588527); conditions: HEK293T FXR-UAS-bla, beta-lactamase ratio, 16 h; activation: stronger effect = higher value; further: potency means the concentration at half of the fitted maximal effect
# Outline: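 FXR-UAS-bla HEK293T, 10% dialyzed FBS; cpds up to 92 uM titration, 16 h 37 C; CCF4 dye 2 h RT; fluorescence. Normalized to chenodeoxycholic acid 100 uM (100%) and DMSO (0%); Hill fit gives EC50, efficacy.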
# [10] = target: Peroxisome proliferator-activated receptor gamma (Homo sapiens) (UniProt P37231); assay: qHTS assay for small molecule agonists of peroxisome proliferator-activated receptor gamma signaling (AID 588536; active means well fitted curve in the direction sought with a large enough effect in the signal ratio, with a control signal flat, not every such curve was filed as active; inconclusive means small, poorly fitted or top-dose-only effect, or effect the other way, or a change in a side signal; inactive means no such curve, though single readings can be large or run the other way; the % refers to the signal ratio; further: potency means the concentration at half of the fitted maximal effect;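 on activation: 0% = DMSO basal wells and 100% = rosiglitazone at 2 µM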); conditions: HEK293 PPARg-UAS-bla, beta-lactamase ratio, 16 h; activation: at 76.7 µM (top of the series), percent of rosiglitazone response, DMSO as zero unless noted
# Outline: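 Compound treatment: 16 h, 37 C, HEK293 GeneBLAzer cells. Detection: CCF4, 2 h RT. Values: Hill-fit EC50, efficacy as % of 2 uM rosiglitazone.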
# [11] = target: Thyroid hormone receptor beta (Homo sapiens) (UniProt P10828); assay: qHTS assay for small molecule antagonists of thyroid hormone receptor beta signaling (AID 588547; active means well fitted inhibition curve with a large enough effect in the signal ratio, with a control signal flat, not every such curve was filed as active; inconclusive means small, poorly fitted or top-dose-only effect, or effect the other way, or a change in a side signal; the % refers to the signal ratio; further: potency means the concentration at half of the fitted maximal effect;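 on activity change % (negative = inhibition): cells stimulated with 0.4 nM T3 agonist during compound exposure; on the % scale 0 is the no-effect control and ±100 the full control effect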); conditions: TR-UAS-bla HEK293, beta-lactamase ratio, antagonist mode, 18 h
# Outline: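 TR-UAS-bla GripTite HEK293 cells in 2% charcoal/dextran FBS medium were preincubated 4 h at 37 C, given compound (0.59 nM to 92 uM) plus 0.4 nM T3 (final) for 18 h, then CCF4 for 2 h at RT; Hill fit gave IC50.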
# [12] = target: Retinoic acid receptor RXR-alpha (Homo sapiens) (UniProt P19793); assay: qHTS assay for small molecule antagonists of retinoid X receptor alpha signaling (AID 588546; active means well fitted inhibition curve with a large enough effect in the signal ratio, with a control signal flat, not every such curve was filed as active; inconclusive means small, poorly fitted or top-dose-only effect, or effect the other way, or a change in a side signal; inactive means no such curve, though single readings can be large or run the other way; the % refers to the signal ratio;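 further: cells stimulated with 9-cis-retinoic acid as agonist; on the % scale 0 is the no-effect control and ±100 the full control effect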); conditions: HEK293T RXRa-UAS-bla, beta-lactamase ratio, antagonist mode
# Outline: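 Beta-lactamase reporter inhibition, read as CCF4 fluorescence ratio (ex 405, em 460/530 nm) after 2 h at RT. HEK293T UAS-bla cells, 2500/well, were stimulated with 9-cis-RA at 500 or 100 nM final alongside test compound for 18 h at 37 C.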
# [13] = qHTS assay for small molecule agonists of the antioxidant response element (ARE) signaling pathway measured by Nrf2-dependant transcriptional activity (AID 720636; active means well fitted curve in the direction sought with a large enough effect in the repeat runs; inconclusive means weak or mixed curves; inactive means no such curve, though single readings can be large; an effect the other way counts as inactive or inconclusive; further: potency means the concentration at half of the fitted maximal effect)
# Outline: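 Attachment 6 hr at 37 C, then compound versus DMSO vehicle for 16 hr in ARE-luc HepG2 cells (1% dialyzed FBS); luminescence recorded 30 min after ONE-Glo addition at room temperature.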
# [14] = qHTS assay for small molecule activators of the p53 signaling pathway (AID 651743; active means well fitted activation curve with a large enough effect in the signal ratio, not every such curve was filed as active; inconclusive means small, poorly fitted or top-dose-only effect, or a change in a side signal; the % refers to the signal ratio; further: potency means the concentration at half of the fitted maximal effect); conditions: HCT-116 p53RE-bla, beta-lactamase FRET ratio, 16 h; activation: stronger effect = higher value
# Outline: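 Agonist-mode quantitative HTS in HCT-116 cells carrying a p53-response-element beta-lactamase reporter; 16 h compound treatment at 37 C, then FRET substrate loading for 2 h at room temperature and fluorescence read.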
# [15] = qHTS assay for small molecule activators of the nuclear factor-kappa B (NF-kB) signaling pathway (AID 651749; active means well fitted activation curve with a large enough effect in the signal ratio; inconclusive means small, poorly fitted or top-dose-only effect, or a change in a side signal; the % refers to the signal ratio; further: potency means the concentration at half of the fitted maximal effect); conditions: NF-kB-bla ME-180 cells, beta-lactamase FRET ratio, 16 h; activation: stronger effect = higher value
# Outline: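 Human ME-180 cervical cells with an NF-kB-bla construct; compounds added via 23 nL pin transfer, DMSO as vehicle; incubation 16 hr. Reporter activity measured by FRET disruption.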
# [16] = target: Peroxisome proliferator-activated receptor alpha (Homo sapiens) (UniProt Q07869); assay: qHTS assay for small molecule agonists of the peroxisome proliferator-activated receptor alpha (PPARalpha) signaling pathway (AID 651778; active means well fitted curve in the direction sought with a large enough effect; inconclusive means small, poorly fitted or top-dose-only effect, or another doubt; inactive means no such curve, though single readings can be large; an effect the other way counts as inactive or inconclusive; further: potency means the concentration at half of the fitted maximal effect); conditions: PathHunter PPARalpha complementation, chemiluminescence, 6 h; max response: stronger effect = higher value
# Outline: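 Cells plated at 2,000/well and held overnight at 37 C, 5% CO2, then compound added by pin tool for 6 hr; after PathHunter detection reagent and 60 min at room temperature, chemiluminescence from enzyme complementation was read.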
# Tags describe the fitted curve by direction and shape or compound fluorescence and quenching.
# UniProt P03372, sequence (P03372 whole entry, looked up): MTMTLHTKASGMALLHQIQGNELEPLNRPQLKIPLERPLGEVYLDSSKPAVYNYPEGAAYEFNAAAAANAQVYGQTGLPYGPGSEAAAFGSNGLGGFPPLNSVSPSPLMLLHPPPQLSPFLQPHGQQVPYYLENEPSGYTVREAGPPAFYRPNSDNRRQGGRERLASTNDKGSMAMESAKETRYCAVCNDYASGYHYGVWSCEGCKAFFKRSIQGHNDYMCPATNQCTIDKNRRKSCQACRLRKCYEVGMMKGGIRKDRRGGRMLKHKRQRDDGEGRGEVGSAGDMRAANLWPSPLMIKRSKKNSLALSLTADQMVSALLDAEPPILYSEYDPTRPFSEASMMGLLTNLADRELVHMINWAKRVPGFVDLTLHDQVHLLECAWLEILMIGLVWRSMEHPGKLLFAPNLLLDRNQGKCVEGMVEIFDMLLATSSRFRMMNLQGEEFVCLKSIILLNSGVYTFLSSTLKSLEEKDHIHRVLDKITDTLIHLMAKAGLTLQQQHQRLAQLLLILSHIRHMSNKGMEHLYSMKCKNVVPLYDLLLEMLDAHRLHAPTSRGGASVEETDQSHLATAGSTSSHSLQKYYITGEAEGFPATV
# UniProt P19793, sequence (P19793 whole entry, looked up): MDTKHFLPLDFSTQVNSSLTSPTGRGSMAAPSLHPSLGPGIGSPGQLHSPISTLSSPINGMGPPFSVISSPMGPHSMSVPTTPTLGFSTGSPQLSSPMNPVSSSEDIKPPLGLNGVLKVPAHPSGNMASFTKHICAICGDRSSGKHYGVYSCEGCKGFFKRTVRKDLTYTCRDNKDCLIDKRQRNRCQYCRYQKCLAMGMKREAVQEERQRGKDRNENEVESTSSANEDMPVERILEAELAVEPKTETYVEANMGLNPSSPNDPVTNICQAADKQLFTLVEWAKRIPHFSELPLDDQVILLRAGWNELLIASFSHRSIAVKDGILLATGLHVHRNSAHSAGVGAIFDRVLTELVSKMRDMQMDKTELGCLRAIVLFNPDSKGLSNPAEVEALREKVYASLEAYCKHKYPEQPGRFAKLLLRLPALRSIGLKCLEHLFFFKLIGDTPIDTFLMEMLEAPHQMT
# UniProt P10828, sequence (P10828 whole entry, looked up): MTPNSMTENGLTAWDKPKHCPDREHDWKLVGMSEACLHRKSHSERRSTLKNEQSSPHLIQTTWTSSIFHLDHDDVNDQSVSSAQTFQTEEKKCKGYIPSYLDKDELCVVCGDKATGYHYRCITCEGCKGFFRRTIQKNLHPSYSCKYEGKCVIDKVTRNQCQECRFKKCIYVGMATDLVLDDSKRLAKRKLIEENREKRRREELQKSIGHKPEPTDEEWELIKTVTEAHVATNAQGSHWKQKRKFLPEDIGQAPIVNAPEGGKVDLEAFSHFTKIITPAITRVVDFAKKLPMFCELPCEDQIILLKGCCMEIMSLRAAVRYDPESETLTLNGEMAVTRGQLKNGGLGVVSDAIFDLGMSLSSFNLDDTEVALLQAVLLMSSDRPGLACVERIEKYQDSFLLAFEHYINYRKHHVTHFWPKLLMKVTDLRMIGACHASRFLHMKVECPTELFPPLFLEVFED
# UniProt Q03181, sequence (Q03181 whole entry, looked up): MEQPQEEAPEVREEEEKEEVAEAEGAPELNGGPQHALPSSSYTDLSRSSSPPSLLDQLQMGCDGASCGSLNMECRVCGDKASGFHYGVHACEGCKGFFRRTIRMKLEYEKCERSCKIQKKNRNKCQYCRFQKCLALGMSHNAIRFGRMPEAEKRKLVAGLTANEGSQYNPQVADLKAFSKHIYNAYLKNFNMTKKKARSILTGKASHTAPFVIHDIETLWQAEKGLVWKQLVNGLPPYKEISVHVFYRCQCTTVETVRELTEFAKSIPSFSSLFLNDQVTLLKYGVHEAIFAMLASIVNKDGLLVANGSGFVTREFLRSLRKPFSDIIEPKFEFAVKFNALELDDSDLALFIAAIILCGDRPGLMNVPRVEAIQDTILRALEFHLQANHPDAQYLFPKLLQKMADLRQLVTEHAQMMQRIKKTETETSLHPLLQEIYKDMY
# UniProt Q07869, sequence (Q07869 whole entry, looked up): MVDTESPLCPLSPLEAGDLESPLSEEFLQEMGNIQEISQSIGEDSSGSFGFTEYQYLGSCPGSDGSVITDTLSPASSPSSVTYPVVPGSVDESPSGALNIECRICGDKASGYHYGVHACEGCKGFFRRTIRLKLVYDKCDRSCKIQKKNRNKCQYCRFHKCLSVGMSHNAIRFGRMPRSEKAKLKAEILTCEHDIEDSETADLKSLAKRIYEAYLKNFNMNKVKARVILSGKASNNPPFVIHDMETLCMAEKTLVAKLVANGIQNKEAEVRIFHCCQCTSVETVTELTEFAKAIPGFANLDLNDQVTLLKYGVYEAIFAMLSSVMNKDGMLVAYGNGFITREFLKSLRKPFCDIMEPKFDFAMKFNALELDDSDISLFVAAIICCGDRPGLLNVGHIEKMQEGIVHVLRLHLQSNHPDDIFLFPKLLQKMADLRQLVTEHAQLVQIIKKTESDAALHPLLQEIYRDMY
smiles,measurement,setting,value
CCCCOCCOC(C)=O,"activity, negative = inhibition",[1],inconclusive: 12.4%
same,activation,[2],inactive: -12.9%
same,Potency,[3],"inconclusive [cytotoxic, side channel, full curve, poor fit]"
same,Potency,[4],"inconclusive [rising, single point]"
CC1(C)CC/C(=C\c2ccc(Cl)cc2)C1(O)Cn1cncn1 (stereo not drawn),"activity, negative = inhibition",[1],inconclusive: -59.1%
same,activation,[2],inactive: -0.523%
same,"activity change, negative = inhibition",[5],inconclusive: 8.71%
same,Potency,[6],inactive
same,Potency,[7],inactive
same,activation,[3],inconclusive: 14.2%
CC(C)(C#N)N=NC(C)(C)C#N,Potency,[1],inactive
same,Potency,[8],inactive
same,"activity, negative = inhibition",[6],inconclusive: 1.75%
same,Potency,[7],inactive
CC(C)C1(C)N=C(c2nc3ccccc3cc2C(=O)O)NC1=O (stereo not drawn),"activity, negative = inhibition",[1],inconclusive: -18.7%
same,Potency,[9],"inconclusive [side channel, falling, full curve, poor fit]"
same,Potency,[5],"inconclusive [side channel, falling, single point]"
same,activation,[10],inconclusive: 13.9%
same,activity change % (negative = inhibition),[11],inactive: 9.94%
same,Potency,[3],"inconclusive [activator, partial curve]"
CCC(C)Nc1c([N+](=O)[O-])cc(C(C)(C)C)cc1[N+](=O)[O-] (stereo not drawn),Potency,[1],"inconclusive [side channel, rising, single point]"
same,activation,[2],inactive: -11.2%
same,max response,[12],inconclusive: 6.07%
same,activity change % (negative = inhibition),[11],inconclusive: -10.4%
same,Potency,[13],inconclusive [activator]
CCCN(CCC)c1c([N+](=O)[O-])cc(C(F)(F)F)c(N)c1[N+](=O)[O-],Potency,[1],active: 31.6 µM [inhibitor]
same,Potency,[8],"inconclusive [inhibitor, single point]"
same,Potency,[10],"inconclusive [inhibitor, partial curve]"
same,Potency,[6],"inconclusive [inhibitor, single point]"
same,Potency,[7],"inconclusive [inhibitor, partial curve]"
same,Potency,[11],"inconclusive [cytotoxic, single point]"
same,Potency,[3],"inconclusive [rising, partial curve]"
same,Potency,[14],"inconclusive [side channel, falling, single point]"
same,Potency,[15],"inconclusive [cytotoxic, side channel, partial curve]"
same,Potency,[16],"inconclusive [activator, single point]"
CCCCCCCCOC(=O)c1cc(O)c(O)c(O)c1,Potency,[1],"inconclusive [side channel, rising, partial curve, poor fit]"
same,Potency,[2],"inconclusive [side channel, rising, partial curve, poor fit]"
same,Potency,[15],"inconclusive [side channel, falling, partial curve, poor fit]"

# From PubChem BioAssay (NCATS)
